Data taken from paper PMC2719694.
Positions count from the first letter of the chain named. Results are given in words; binding and its absence hold for the method and conditions named. In cells and extracts the contact can be indirect. Some entries that bind do so weakly or less than the wild type. Tags and fused reporters may be left off the sequences shown.

Chains of the proteins cited; added tags and fusions are not shown.
UniProt P37383: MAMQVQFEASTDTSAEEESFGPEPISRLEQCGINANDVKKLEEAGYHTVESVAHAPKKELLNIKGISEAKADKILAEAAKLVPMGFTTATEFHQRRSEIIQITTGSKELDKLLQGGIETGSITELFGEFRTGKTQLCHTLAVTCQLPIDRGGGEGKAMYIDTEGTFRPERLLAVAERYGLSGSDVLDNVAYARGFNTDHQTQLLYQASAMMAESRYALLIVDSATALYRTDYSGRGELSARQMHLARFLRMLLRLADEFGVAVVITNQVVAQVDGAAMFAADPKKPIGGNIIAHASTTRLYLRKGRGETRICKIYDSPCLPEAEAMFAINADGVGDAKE

Columns and labels:
[1] = biological target: T1, myc-tagged GgBrca2 residues 3152-3398, P3240L (Gallus gallus) (UniProt Q8QFV6); experiment: co-IP; immunoprecipitation of the myc-tagged GgBrca2 fragment from extracts of transfected DT40 cells arrested in mitosis with nocodazole (120 ng/ml overnight), Western blot for GgRad51 and myc
T1 sequence: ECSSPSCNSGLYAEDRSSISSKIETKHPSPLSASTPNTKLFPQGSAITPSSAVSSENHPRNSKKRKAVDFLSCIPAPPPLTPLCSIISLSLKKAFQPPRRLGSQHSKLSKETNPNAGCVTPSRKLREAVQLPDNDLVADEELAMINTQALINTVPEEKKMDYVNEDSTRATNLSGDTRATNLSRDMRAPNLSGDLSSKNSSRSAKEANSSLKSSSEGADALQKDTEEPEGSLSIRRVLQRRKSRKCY

[2] = biological target: T2, myc-tagged GgBrca2 residues 3152-3398, S3239A (Gallus gallus) (UniProt Q8QFV6); experiment: as above
T2 sequence: T1 sequence with S88A, L89P

[3] = biological target: T3, myc-tagged GgBrca2 residues 3152-3398, S3239E (Gallus gallus) (UniProt Q8QFV6); experiment: as above
T3 sequence: T1 sequence with S88E, L89P

[4] = biological target: T4, myc-tagged GgBrca2 residues 3152-3398, T3232A (Gallus gallus) (UniProt Q8QFV6); experiment: as above
T4 sequence: T1 sequence with T81A, L89P

[5] = biological target: T1, myc-tagged GgBrca2 residues 3152-3398, P3240L (Gallus gallus); experiment: co-IP; immunoprecipitation of the myc-tagged GgBrca2 fragment from extracts of transfected DT40 cells, Western blot for GgRad51 and myc; asynchronous (interphase) cells, also with roscovitine 30-120 min (50 uM), and nocodazole-arrested cells treated with roscovitine
[6] = biological target: T2, myc-tagged GgBrca2 residues 3152-3398, S3239A (Gallus gallus); experiment: as above
[7] = biological target: T3, myc-tagged GgBrca2 residues 3152-3398, S3239E (Gallus gallus); experiment: as above
[8] = biological target: T4, myc-tagged GgBrca2 residues 3152-3398, T3232A (Gallus gallus); experiment: as above
[9] = biological target: T5, myc-tagged GgBrca2 residues 3152-3398, T3232E (Gallus gallus) (UniProt Q8QFV6); experiment: as above
T5 sequence: T1 sequence with T81E, L89P

[10] = biological target: T6, myc-tagged GgBrca2 residues 3152-3398, wild type (Gallus gallus) (UniProt Q8QFV6); experiment: as above
T6 sequence: T1 sequence with L89P

[11] = biological target: T6, myc-tagged GgBrca2 residues 3152-3398, wild type (Gallus gallus); experiment: condition: only nocodazole-arrested cells (120 ng/ml nocodazole overnight); co-IP; immunoprecipitation of the myc-tagged GgBrca2 fragment from extracts of transfected DT40 cells arrested in mitosis with nocodazole (120 ng/ml overnight), Western blot for GgRad51 and myc

binding [1]: no binding | binding [2]: no binding | binding [3]: no binding | binding [4]: binds | binding [5]: no binding | binding [6]: no binding | binding [7]: no binding | binding [8]: binds | binding [9]: no binding | binding [10]: binds | binding [11]: no binding
Substance: Gallus gallus Rad51 (from UniProt P37383 1-339)
